Experimental data published in paper PMC12136788.
This is one part of the list.

T1: UNK ZnF1-3 (human, UniProt Q9C0B0 31-174)
T1 sequence: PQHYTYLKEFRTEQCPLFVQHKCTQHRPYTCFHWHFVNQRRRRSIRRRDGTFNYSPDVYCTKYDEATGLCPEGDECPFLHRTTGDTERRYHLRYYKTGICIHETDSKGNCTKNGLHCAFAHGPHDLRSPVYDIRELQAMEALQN

B1: chr16:87731977:87731978:+_ENSMUSG00000025612_ENSMUST00000026703|mus_mus|FALSE|FALSE (ssRNA)
RNA: GGGAGUUCUACAGUCCGACGAUCAUGUACUUUCACACAGUGAGCACUCUCUCCCAGGAAAAUUGAGUGGACUUCUCAAAAUUUCUAGAAAAUAAUUCCAAUUUAAUUUUCUCUUCCAAAGAUGAAAACACAUACCACCCUUCCCAACAGAGGAUUGAGCAUCA
B2: chr19:8871877:8871878:-_ENSMUSG00000071662_ENSMUST00000096261|mus_hu|FALSE|FALSE (ssRNA)
RNA: GGGAGUUCUACAGUCCGACGAUCGCCUGGCUGGAUCACACCAGCACCAAUAUUGUCAAUGGUGGUGACAGCAAUUACAAAGCCAUACUUCCCUGUGCAGGUCCCCUCCACCUCGGUGAAGAGCUUCUGCUUCACCGUGUUGAGCAACAGAGGAUUGAGCAUCA
B3: 61391936_61396343_1189_CDS_ENSG00000170921_ENST00000424789|human|control|control (ssRNA)
RNA: GGGAGUUCUACAGUCCGACGAUCUGGCAGCUCUCUGUUGGCAUCCACAUGUUUGGGGGAGGCAUGUGGGCUGUCUGAGGCGAUCUGUCUCAUCCUUGUACCAUGGCAGCUGAGGGCCACCAGUCUGGAGAUGAUGGCAGUUUUCAACAGAGGAUUGAGCAUCA
B4: chr1:10364632:10364633:+_ENSG00000054523_ENST00000377093|hu_hu|FALSE|FALSE (ssRNA)
RNA: GGGAGUUCUACAGUCCGACGAUCUCGACCAGCUUUGAGAUUGGGUGCUGAGAACUGUCUCCUCAUCCGCGGAGGUGUCACAAACUGGCUACAGUGGCUGGGUUUGUCAGUCUGCUUCUGAUAGGAAGUGGCUGCAUUGCCCUCCAACAGAGGAUUGAGCAUCA
B5: chr7:138125181:138125182:+_ENSMUSG00000006205_ENSMUST00000006367|mus_mus|FALSE|FALSE (ssRNA)
RNA: GGGAGUUCUACAGUCCGACGAUCGAUGCCCGCCGUCACCUUCAAGGUGUUAAUCCCAAUCACCUCGCCAUCCAGGUUUACUAACGGGCCUCCGGAAUUUCCAUAAUUGAUGAUAGCGUCUGUCUGAAUGUAGUCCAUAUCGGACAACAGAGGAUUGAGCAUCA
B6: chr2:28002375:28002376:+_ENSG00000243147_ENST00000296102|hu_mus|FALSE|FALSE (ssRNA)
RNA: GGGAGUUCUACAGUCCGACGAUCCUUCAUUGCACACUGCAGAGUUCGAAACGGUGCCUCACCCUCGAGCUUCUCAUUUAGGAAUCAAAUUCAUUUUCAAUCCACUACUCAGAGGGAACGGAUUUUUUUCUGUUCCACAAAGAGCAACAGAGGAUUGAGCAUCA
B7: chr9:99427540:99427541:-_ENSMUSG00000032468_ENSMUST00000035043|mus_hu|FALSE|FALSE (ssRNA)
RNA: GGGAGUUCUACAGUCCGACGAUCUUCUCCAUCAACCAAAACAUUUACCAGGGUCAUCGAUACCUGGGGGUUUUCAAAAGCUAAAACUGAGAAACAUUUCAGUGCUUGCAUUCGAACUUUGUAGGACAGUGAGGUUAGUAGGUGCAACAGAGGAUUGAGCAUCA
B8: chr6:41757443:41757444:+_ENSG00000214736_ENST00000398881|hu_mus|hu_hu_hu_mus_False|38_68 (ssRNA)
RNA: GGGAGUUCUACAGUCCGACGAUCGAACCGUGCAGAGGCAACAUCUCAGCCGACACUGGGGGAUGGGGGAACAAAAGGGGGGGGUUCAGGCAAGGAGAAGAAAAGUGCUUCAGCUGCCACUCAGGUAGGAUCUUGUGGUCACAGCAACAGAGGAUUGAGCAUCA
B9: 38065126_38065246_7389_3pUTR_ENSMUSG00000021427_ENSMUST00000021864|mouse|control|control (ssRNA)
RNA: GGGAGUUCUACAGUCCGACGAUCGCCAGGGAGAAAUCAAAAGAAACAUGAAAGACCACGAGCCUUGCGAGGGGAACGGAGGCAGCCAGAAGCACAGAGGACACUCUGACAAAAGAGAAGCUGACACAGAGAAGGAUCUGUAGGCAACAGAGGAUUGAGCAUCA
B10: 107187324_107187444_78_3pUTR_ENSG00000125266_ENST00000245323|human|control|control (ssRNA)
RNA: GGGAGUUCUACAGUCCGACGAUCCCCAGCUCCGCGCACUCCGGGCCAAGAAGGGACUGACGGGACGCAGGCUGGGACCCCCAAUCCUCCGGGGCAGACUGGCGGGGAAGACGGCGUGCGCCCGCAGGCAGCUCCGAGGCGCGCCAACAGAGGAUUGAGCAUCA
B11: chr1:36758251:36758252:+_ENSG00000054118_ENST00000354618|hu_hu|FALSE|FALSE (ssRNA)
RNA: GGGAGUUCUACAGUCCGACGAUCGUGUAUCUCUGGGCUUUUCUUGUUUUUGGCUGCCUCCUGCUCAGUUCCUCUCUUUAGGUAUUUAGUAAAGCGUUCAUGUAAUGUCAUUCCUGAGGACCCAAAGUGAUGCUCUUUAACAUGCAACAGAGGAUUGAGCAUCA
B12: 58329776_58329896_94_5pUTR_ENSMUSG00000027810_ENSMUST00000029387|mouse|control|control (ssRNA)
RNA: GGGAGUUCUACAGUCCGACGAUCAAGUCUGCGAGUCGGUGUUUCCGGCGCCGCCAGCCUCGGGGCCAAUCCACGUCUGGUUCCCGAGCGCGCACGCGCAGCUCUGGCUCCUCGUUUUCCGGAGCGGGGAAGAGCCUGGCUGCGCAACAGAGGAUUGAGCAUCA
B13: chr17:74307696:74307697:-_ENSG00000161542_ENST00000324684|hu_hu|FALSE|FALSE (ssRNA)
RNA: GGGAGUUCUACAGUCCGACGAUCGUUUCGGAAAAGGUAGGCCAUGGACUCUCCAUUGUGGAUUCUCCGAAUGGCUUCAGAAAGAAUCAAACUGAUAUCCACAGUCUUUAUCUUGGGACAUUGCAGCUUCUGAACCUCAUGAGGCAACAGAGGAUUGAGCAUCA
B14: 3117114_3117873_1036_CDS_ENSG00000197386_ENST00000355072|human|control|control (ssRNA)
RNA: GGGAGUUCUACAGUCCGACGAUCGGUGAGCAGCACGCCAAGAAUCAGCAGAGUGGAGUGUUCAUCCUCGACAGGAACGAGUAAGCCUAAGAGCACAUUUAGUAGCCAACUAUAGAAAUAUUGUGUCCUUCUUGAGUGCUGGCACAACAGAGGAUUGAGCAUCA
B15: 71096126_71096246_1001_CDS_ENSG00000114861_ENST00000475937|human|control|control (ssRNA)
RNA: GGGAGUUCUACAGUCCGACGAUCCCCGGGCUGAAUUGUCAGAAGGCCUUGGCGCUGCAAAGACAGGAGGUGCUGCUGCUGUAACUGCUGCAUCUGUAAAAGCUGCUGCUGAAAAGCCAACUGCUGGGUAGCCACCUGCUGUUGCAACAGAGGAUUGAGCAUCA
B16: chr7:54825262:54825263:-_ENSG00000132432_ENST00000352861|hu_hu|hu_hu_hu_mus_False|98_108 (ssRNA)
RNA: GGGAGUUCUACAGUCCGACGAUCCUGACUUGGCUCAACAAACUGCAGCAUUACCUGAUCCAUGUUUGUUGGAUGGCGGAUUGAGAGCGUAGAGACACGUAGCUCAGGAGAGAACCGAGCCCAACGGAACCGGAAGCUGGCAACCAACAGAGGAUUGAGCAUCA
B17: chr7:40134317:40134318:+_ENSG00000065883_ENST00000340829|hu_hu|FALSE|FALSE (ssRNA)
RNA: GGGAGUUCUACAGUCCGACGAUCGGAAGGGUCACUGCUGUUUGCCAGGACUGCAAUAGGACCAUGGCUAUAUUCAAAUCUAUGGUCCUUGUCUCCACUAAACAACAUGGGACCAGCAUUGAGGUAAAUGUCUCCAUAUCCAGCCAACAGAGGAUUGAGCAUCA
B18: chr2:156005782:156005783:-_ENSMUSG00000027620_ENSMUST00000109587|mus_mus|motif|central (ssRNA)
RNA: GGGAGUUCUACAGUCCGACGAUCGCGGUACCGCCCAACCCGAAUAUCGGGCCCCGAGGGCGUCUAGGCCCAAGCGAAUCGGAAAGAAACAAUGGGAUUAAAGGAGCCCGCGACGGAGAGCAGGGCAGCGGCUUCGGCAGCUCACAACAGAGGAUUGAGCAUCA
B19: chr7:141445308:141445309:+_ENSG00000106028_ENST00000265304|hu_hu|hu_hu_hu_mus_False|58_98 (ssRNA)
RNA: GGGAGUUCUACAGUCCGACGAUCUAUGAUUGUUGUUGCUUGUCGCCUCACAUUGUUUUUAUCCAUGUACUCGCCAUAGUCUAUUUUCCCUUCCACAAAUAUACGAGCCCCCUUUUUCACAUACUGAUAUGCCACAUCUCUGAGCAACAGAGGAUUGAGCAUCA
B20: chr1:180251892:180251893:+_ENSMUSG00000026500_ENSMUST00000027781|mus_mus|FALSE|FALSE (ssRNA)
RNA: GGGAGUUCUACAGUCCGACGAUCAUGAGCCAUAGAGUAUAGAUUCUCGAGCACAUGGAGUGUUCUCAACAUCUAAAAUACCUAGGAGCUUGAAGGGCUUUUUCUCCGUCUCGUGGGGCUCCGGGGCGGCCGCCAUGGGCACCACAACAGAGGAUUGAGCAUCA
B21: chr16:94690093:94690094:+_ENSMUSG00000040785_ENSMUST00000117648|mus_hu|mus_mus_mus_hu_True|1_1 (ssRNA)
RNA: GGGAGUUCUACAGUCCGACGAUCGGGCUGGGAUGACGGACACACAGCCUCGAUUCCAGGGGGAAAAAGUCUUAGUCGAUACUAAUUAAAAAGUGUUAAUGAUUUUUGAAAAUCAGAUUACAUCUAUAAAAGAUGAAAGCACUUCAACAGAGGAUUGAGCAUCA
B22: chrX:17854524:17854525:+_ENSMUSG00000037369_ENSMUST00000044484|mus_mus|motif|central (ssRNA)
RNA: GGGAGUUCUACAGUCCGACGAUCUCGAGAAUUACUCUCAUUAGUGACAAAAAGCAGAUCAAAAACCUCCACCUCACAAAUACGGCAAUAAUGAGCUGGUUCUUCUUUUGUCCGCCCGUGCCAUAUGAUCUCUUUUCCUGCAGCCAACAGAGGAUUGAGCAUCA

Biological target: T1, UNK ZnF1-3
Experiment: nsRBNS (natural sequence RNA bind-n-seq); RBNS binding buffer (assumed for nsRBNS): 25 mM Tris pH 7.5, 150 mM KCl, 3 mM MgCl2, 0.01% Triton X-100, 500 ug/ml BSA, 20 U/ml SUPERase-In, 4 C; UNK is unkempt and MSI1 is Musashi-1; names of the RNAs are library labels; protein concentration not given here; high values mean tight binding

Binder | binding signal [enrichment R]
B1 | 1.65
B2 | 0.609
B3 | 0.439
B4 | 0.491
B5 | 0.793
B6 | 0.725
B7 | 1.51
B8 | 2.15
B9 | 2.1
B10 | 0.661
B11 | 0.822
B12 | 0.264
B13 | 0.538
B14 | 1.61
B15 | 1.18
B16 | 1.14
B17 | 1.54
B18 | 1.12
B19 | 0.518
B20 | 1.46
B21 | 0.667
B22 | 0.956
